SMILES strings stand for the structures. The list shows a part of the results. Single values are uncertain, as repeats are few or missing.
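Note: cell number obtained by counting DAPI-stained nuclei in high-throughput microscope images with image analysis software, screen run in 1,536-well plates.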

For the assay, the system named is MEL-HO. The assay can be described thus: cell count relative to DMSO control; melanoma cells; higher = more viable cells. Particulars: library dose: low library concentration; 72 h.
`N#CC[C@H](C1CCCC1)n1cc(-c2ncnc3[nH]ccc23)cn1` [ruxolitinib] + C=CCn1c(=O)c2cnc(Nc3ccc(N4CCN(C)CC4)cc3)nc2n1-c1cccc(C(C)(C)O)n1 [MK1775] (first compound 1 µM, partner dose 0.02 µM) registered a cell count of 87.7%.

For `CC[C@]1(O)C[C@H]2CN(CCc3c([nH]c4ccccc34)[C@@](C(=O)OC)(c3cc4c(cc3OC)N(C=O)[C@H]3[C@@](O)(C(=O)OC)[C@H](OC(C)=O)[C@]5(CC)C=CCN6CC[C@]43[C@@H]65)C2)C1` [vincristine] + C[C@@H]1CCN(C(=O)CC#N)C[C@@H]1N(C)c1ncnc2[nH]ccc12 [CP690550] (first compound 0.0001 µM, partner dose 1 µM), the cell count was 110%.

Turning to `N#CC[C@H](C1CCCC1)n1cc(-c2ncnc3[nH]ccc23)cn1` [ruxolitinib] + O=C1NC(=O)/C(=C/c2ccc(-c3ccc(F)cc3O)o2)S1 [AS252424] (first compound 1 µM, partner dose 1 µM), the cell count was determined as 97.9%.

The molecule `CC[C@]1(O)C[C@H]2CN(CCc3c([nH]c4ccccc34)[C@@](C(=O)OC)(c3cc4c(cc3OC)N(C=O)[C@H]3[C@@](O)(C(=O)OC)[C@H](OC(C)=O)[C@]5(CC)C=CCN6CC[C@]43[C@@H]65)C2)C1` [vincristine] + COc1ccc(-c2ccc3c(N4CCOCC4)nc(N4C[C@@H](C)O[C@@H](C)C4)nc3n2)cc1CO [KU0063794] (first compound 0.0001 µM, partner dose 0.02 µM) showed a cell count of 98.5%.

In the case of `N#CC[C@H](C1CCCC1)n1cc(-c2ncnc3[nH]ccc23)cn1` [ruxolitinib] + CCN(CC)CCCCNc1ncc2cc(-c3cc(OC)cc(OC)c3)c(NC(=O)NC(C)(C)C)nc2n1 [PD173074] (first compound 1 µM, partner dose 0.1 µM), the cell count is 95.3%.

`N#CC[C@H](C1CCCC1)n1cc(-c2ncnc3[nH]ccc23)cn1` [ruxolitinib] + O=C(Nc1cccc(Cl)c1)Nc1ncc(CCNc2ncnc3ccsc23)s1 [SNS314] (first compound 1 µM, partner dose 0.0008 µM): the cell count turned out to be 96.7%.

With `N#CC[C@H](C1CCCC1)n1cc(-c2ncnc3[nH]ccc23)cn1` [ruxolitinib] + NC(=O)Nc1cc(-c2cccc(F)c2)sc1C(=O)N[C@H]1CCCNC1 [AZD7762] (first compound 1 µM, partner dose 0.02 µM), the cell count amounted to 97.5%.

Regarding `N#CC[C@H](C1CCCC1)n1cc(-c2ncnc3[nH]ccc23)cn1` [ruxolitinib] + CC(C)CCN1c2nc(Nc3cc(F)c(O)c(F)c3)ncc2N(C)C(=O)C1C [BID1870] (first compound 1 µM, partner dose 0.2 µM), the cell count was 100%.

With `N#CC[C@H](C1CCCC1)n1cc(-c2ncnc3[nH]ccc23)cn1` [ruxolitinib] + c1cc(-c2cnn3cc(-c4ccc(OCCN5CCCCC5)cc4)cnc23)ccn1 [Dorsomorphin] (first compound 1 µM, partner dose 0.4 µM), the cell count turned out to be 92.4%.

As to `Cc1cc(Nc2cc(N3CCN(C)CC3)nc(Sc3ccc(NC(=O)C4CC4)cc3)n2)n[nH]1` [Tozasertib] + Oc1cc(-c2nc(-c3ccccc3)[nH]c2-c2ccncc2)ccc1Cl [L779450] (first compound 0.006 µM, partner dose 0.2 µM), the cell count worked out at 93%.

In the case of `N#CC[C@H](C1CCCC1)n1cc(-c2ncnc3[nH]ccc23)cn1` [ruxolitinib] + CC1(C)NC(=O)N(c2ccc([N+](=O)[O-])c(C(F)(F)F)c2)C1=O [nilutamide] (first compound 1 µM, partner dose 1 µM), the cell count came to 104%.

`Cc1cc(Nc2cc(N3CCN(C)CC3)nc(Sc3ccc(NC(=O)C4CC4)cc3)n2)n[nH]1` [Tozasertib] + CC(C)CCN1c2nc(Nc3cc(F)c(O)c(F)c3)ncc2N(C)C(=O)C1C [BID1870] (first compound 0.006 µM, partner dose 0.2 µM) registered a cell count of 90.8%.

With `N#CC[C@H](C1CCCC1)n1cc(-c2ncnc3[nH]ccc23)cn1` [ruxolitinib] + COc1ccc(-c2ccc3c(N4CCOCC4)nc(N4C[C@@H](C)O[C@@H](C)C4)nc3n2)cc1CO [KU0063794] (first compound 1 µM, partner dose 0.02 µM), the cell count was determined as 108%.

With `Cc1cc(Nc2cc(N3CCN(C)CC3)nc(Sc3ccc(NC(=O)C4CC4)cc3)n2)n[nH]1` [Tozasertib] + Cc1cc([N+](=O)[O-])ccc1NS(=O)(=O)c1cc(Cl)ccc1Cl [FH535] (first compound 0.006 µM, partner dose 1 µM), the cell count was determined as 97.3%.

On to `CC[C@]1(O)C[C@H]2CN(CCc3c([nH]c4ccccc34)[C@@](C(=O)OC)(c3cc4c(cc3OC)N(C=O)[C@H]3[C@@](O)(C(=O)OC)[C@H](OC(C)=O)[C@]5(CC)C=CCN6CC[C@]43[C@@H]65)C2)C1` [vincristine] + c1cc(-c2cnn3cc(-c4ccc(OCCN5CCCCC5)cc4)cnc23)ccn1 [Dorsomorphin] (first compound 0.0001 µM, partner dose 0.4 µM), for which the cell count came out at 99.4%.

As for `N#CC[C@H](C1CCCC1)n1cc(-c2ncnc3[nH]ccc23)cn1` [ruxolitinib] + Oc1nc(-c2ccc(C(F)(F)F)cc2)nc2c1CSCC2 [XAV939] (first compound 1 µM, partner dose 2 µM), the cell count amounted to 97.8%.

The molecule `Cc1cc(Nc2cc(N3CCN(C)CC3)nc(Sc3ccc(NC(=O)C4CC4)cc3)n2)n[nH]1` [Tozasertib] + Cn1cncc1[C@@](N)(c1ccc(Cl)cc1)c1ccc2c(c1)c(-c1cccc(Cl)c1)cc(=O)n2C [tipifarnib] (first compound 0.006 µM, partner dose 0.01 µM) had a cell count of 102%.

For the molecule `CC[C@]1(O)C[C@H]2CN(CCc3c([nH]c4ccccc34)[C@@](C(=O)OC)(c3cc4c(cc3OC)N(C=O)[C@H]3[C@@](O)(C(=O)OC)[C@H](OC(C)=O)[C@]5(CC)C=CCN6CC[C@]43[C@@H]65)C2)C1` [vincristine] + NC(=O)Nc1cc(-c2cccc(F)c2)sc1C(=O)N[C@H]1CCCNC1 [AZD7762] (first compound 0.0001 µM, partner dose 0.02 µM), the cell count worked out at 108%.

Take `Cc1cc(Nc2cc(N3CCN(C)CC3)nc(Sc3ccc(NC(=O)C4CC4)cc3)n2)n[nH]1` [Tozasertib] + O=C1NC(=O)/C(=C/c2ccc(-c3ccc(F)cc3O)o2)S1 [AS252424] (first compound 0.006 µM, partner dose 1 µM): the cell count is 95.9%.

`CC[C@]1(O)C[C@H]2CN(CCc3c([nH]c4ccccc34)[C@@](C(=O)OC)(c3cc4c(cc3OC)N(C=O)[C@H]3[C@@](O)(C(=O)OC)[C@H](OC(C)=O)[C@]5(CC)C=CCN6CC[C@]43[C@@H]65)C2)C1` [vincristine] + Cc1cc(N2CCOCC2)cc2[nH]c(-c3c(NC[C@@H](O)c4cccc(Cl)c4)cc[nH]c3=O)nc12 [BMS536924] (first compound 0.0001 µM, partner dose 0.2 µM) yielded a cell count of 104%.

`CC[C@]1(O)C[C@H]2CN(CCc3c([nH]c4ccccc34)[C@@](C(=O)OC)(c3cc4c(cc3OC)N(C=O)[C@H]3[C@@](O)(C(=O)OC)[C@H](OC(C)=O)[C@]5(CC)C=CCN6CC[C@]43[C@@H]65)C2)C1` [vincristine] + NCC(=O)Nc1ccc(-n2nc(C(F)(F)F)cc2-c2ccc3c(ccc4ccccc43)c2)cc1 [OSU03012] (first compound 0.0001 µM, partner dose 1 µM) yielded a cell count of 97.9%.

`Cc1cc(Nc2cc(N3CCN(C)CC3)nc(Sc3ccc(NC(=O)C4CC4)cc3)n2)n[nH]1` [Tozasertib] + Oc1nc(-c2ccc(C(F)(F)F)cc2)nc2c1CSCC2 [XAV939] (first compound 0.006 µM, partner dose 2 µM) yielded a cell count of 100%.

`CC[C@]1(O)C[C@H]2CN(CCc3c([nH]c4ccccc34)[C@@](C(=O)OC)(c3cc4c(cc3OC)N(C=O)[C@H]3[C@@](O)(C(=O)OC)[C@H](OC(C)=O)[C@]5(CC)C=CCN6CC[C@]43[C@@H]65)C2)C1` [vincristine] + COC(=O)c1sccc1S(=O)(=O)Nc1ccc(Nc2ccccc2)cc1OC [GSK0660] (first compound 0.0001 µM, partner dose 1 µM) displayed a cell count of 91.4%.

In the case of `Cc1cc(Nc2cc(N3CCN(C)CC3)nc(Sc3ccc(NC(=O)C4CC4)cc3)n2)n[nH]1` [Tozasertib] + N#Cc1c(O)c2c(-c3ccc(-c4ccccc4O)cc3)csc2[nH]c1=O [A769662] (first compound 0.006 µM, partner dose 2 µM), the cell count came out at 98.6%.

These data come from the supplement of paper PMC4604168 (melanoma cell lines).
